# Results as given in publication PMC7819943, “Rice protein-binding microarrays: a tool to detect cis-acting elements near promoter regions in rice”.
# The list shows a part of the results.
# Target: T1, OsWOX13 (Oryza sativa, UniProt Q5QMM3 1-267)
# T1 sequence: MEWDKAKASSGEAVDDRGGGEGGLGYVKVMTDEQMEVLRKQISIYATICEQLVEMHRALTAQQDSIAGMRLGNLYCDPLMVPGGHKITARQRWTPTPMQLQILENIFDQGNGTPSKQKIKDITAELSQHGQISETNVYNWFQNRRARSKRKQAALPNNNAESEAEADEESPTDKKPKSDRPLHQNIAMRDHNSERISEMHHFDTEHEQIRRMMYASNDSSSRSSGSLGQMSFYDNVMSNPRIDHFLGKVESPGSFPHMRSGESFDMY
# Assay: protein-binding microarray (RPBM); PBS, 2% BSA, 51.3 ng/ul salmon testes DNA, 50 uM zinc acetate, 200 nM TF, 25 C, 1 h; high values mean tight binding
# Details: protein: recombinant; tags: N-terminal polyhistidine and DsRed monomer fusion (pET32a); label: CyDye5-dUTP incorporated in the synthesized complementary strand; 3' TTTTT single-stranded linker to array surface; dsDNA, one strand shown
# Method in brief: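 A custom Agilent array was converted to double-stranded form by primer extension with Cy5-dUTP and blocked with 2% BSA. Protein at 200 nM in PBS with 2% BSA, salmon testes DNA and 50 µM zinc acetate was applied for 1 h at 25 °C, followed by washing. The proteins were polyhistidine–DsRed N-terminal fusions of transcription factors, expressed in E. coli BL21-CodonPlus and Ni–NTA-purified. The binding signal is per-feature fluorescence intensity (arbitrary units) from an Axon 4000B scanner.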
row,Sequence,binding signal
1,CAGACAGAGGATTACCAAGATTGGCTGTATGAAATACGTACGGAGTCACCTAGTGCAG,4540 fluorescence intensity (a.u.)
2,CCCAAGGAATAATTAATTATTTGCTAATCTTATGAGTGGTCGGAGTCACCTAGTGCAG,26200 fluorescence intensity (a.u.)
3,AATTATTTATTCAAATCATGATCCGATTGTACCATTAAATCGGAGTCACCTAGTGCAG,4030 fluorescence intensity (a.u.)
4,GCATACTAATGACTAATGAGAAACCAACAGGTCATTTCGTCGGAGTCACCTAGTGCAG,3300 fluorescence intensity (a.u.)
5,GTGACCGCCAATCATGAGCTCAACACTCTCTATTCCCTTCCGGAGTCACCTAGTGCAG,17300 fluorescence intensity (a.u.)
6,TTTGCATACGTGGCGGGCTGATTGGACCGTATTTACCACTCGGAGTCACCTAGTGCAG,3410 fluorescence intensity (a.u.)
7,AATAAATTGTCTAAGTTATTGCATTAGAACGAGCGCACCCCGGAGTCACCTAGTGCAG,17500 fluorescence intensity (a.u.)
8,GCCCATTAATTTCTCGTCGTCTCCCTTTTCTCAAACAGTACGGAGTCACCTAGTGCAG,14100 fluorescence intensity (a.u.)
9,GACCTAACATTGATTGAATATATCTATAATAATATTGTTACGGAGTCACCTAGTGCAG,40800 fluorescence intensity (a.u.)
10,GTTGAATGTTTTGTATGATTTGAACCTGAAAACTGCATGACGGAGTCACCTAGTGCAG,7380 fluorescence intensity (a.u.)
11,TGTTCCCAATCATTCTCACCATATCGAGCTATGAAAAGAGCGGAGTCACCTAGTGCAG,3920 fluorescence intensity (a.u.)
12,GTGATTGGCGCGATCCGTGCGCTTGCCGTCTTGCCGGCGTCGGAGTCACCTAGTGCAG,30100 fluorescence intensity (a.u.)
13,ATAACTAAGATTATATTAATTTGCCGTGTATAATACTTCCCGGAGTCACCTAGTGCAG,12700 fluorescence intensity (a.u.)
14,ATGAAAATTAAAGCACATCAATGGTGGGGATTAAAAGTGGCGGAGTCACCTAGTGCAG,3600 fluorescence intensity (a.u.)
15,GCTGATGGGTATGACACGAGAGCAGCCAAAATCCGGCCGGCGGAGTCACCTAGTGCAG,8780 fluorescence intensity (a.u.)
16,TATCTGATTGACAACTTCATCTTTTCGCTTATACTTATGCCGGAGTCACCTAGTGCAG,42600 fluorescence intensity (a.u.)
17,AACCATTGATTTTCCTGAGTTTCTCAATCTGATGGCTCGCCGGAGTCACCTAGTGCAG,7920 fluorescence intensity (a.u.)
18,CAGTCAACTGACAGTTTGATCAGTCATCTCTATCCCTTGACGGAGTCACCTAGTGCAG,5460 fluorescence intensity (a.u.)
19,TAAATTACTAGTTAACTTAGTTATATCTTCATTTGATCCTCGGAGTCACCTAGTGCAG,5640 fluorescence intensity (a.u.)
20,ATCAGAACTAATTGTGTAGTGTTATTAGTTGCTGGCATATCGGAGTCACCTAGTGCAG,5830 fluorescence intensity (a.u.)
21,CAACTGATTGGTCTCACACCCGACCTAACGGCTAACGCAACGGAGTCACCTAGTGCAG,46600 fluorescence intensity (a.u.)

row,Sequence,binding signal
1,ACCAAAATTAGCATCAGTGAGCTACTTGCCTGGCCAACCGCGGAGTCACCTAGTGCAG,4790 fluorescence intensity (a.u.)
2,AAGTGCAATTCACTCAATTAGTTATAAAGACCAATCGTTCCGGAGTCACCTAGTGCAG,4250 fluorescence intensity (a.u.)
3,CATGAGATGATTGAACTGGGACATGTTAGTCAAGGTTTTCCGGAGTCACCTAGTGCAG,25400 fluorescence intensity (a.u.)
4,AGTCTAATAACAAAACAAATTACAAATTCTGACAGGAAGCCGGAGTCACCTAGTGCAG,12600 fluorescence intensity (a.u.)
5,TGTCCTGATTTGGTGTTTTATTTTACTTAAGATTCAGAAGCGGAGTCACCTAGTGCAG,14900 fluorescence intensity (a.u.)
6,ACTTGGATTGGATAGTTACTACAAGGCCGAGATAGATGAGCGGAGTCACCTAGTGCAG,12100 fluorescence intensity (a.u.)
7,TTTGATTCGTGACAGGTGGTAGGAGAGCTAATTGTTCCTGCGGAGTCACCTAGTGCAG,10300 fluorescence intensity (a.u.)
8,TTATGAATGACTGTTCACTGTACATTAATATGCACTTCATCGGAGTCACCTAGTGCAG,4200 fluorescence intensity (a.u.)
9,TTTTAATTTATGAATGCAGACATGGTGATCTAACACCATACGGAGTCACCTAGTGCAG,29900 fluorescence intensity (a.u.)
10,TGTCATGATTTGATAATGTGGTGCTACAGTAAATATTTGCCGGAGTCACCTAGTGCAG,26800 fluorescence intensity (a.u.)
11,GTGCTTAATTAACCTCCGCGGCAAGAATAAGCCATAATTTCGGAGTCACCTAGTGCAG,6090 fluorescence intensity (a.u.)
12,CAGATTAGTAGATAGATTTACTCTCTCTCTTTATTTAATCCGGAGTCACCTAGTGCAG,9890 fluorescence intensity (a.u.)
13,GTAAACTGTGAGACGAATTTATTAAGCTTAATTAATCCGTCGGAGTCACCTAGTGCAG,10400 fluorescence intensity (a.u.)
14,ATGATTAAAATTTAGTGCTGATCACCTTAGTCATTGAAATCGGAGTCACCTAGTGCAG,18100 fluorescence intensity (a.u.)
15,TTCTGAATGTGATTGAATTAATTGGACTTGCGTTGACCTTCGGAGTCACCTAGTGCAG,59500 fluorescence intensity (a.u.)
16,TCAATCGGATTGATTGTTCACTTGAATATGTTGGTTACAACGGAGTCACCTAGTGCAG,26800 fluorescence intensity (a.u.)
17,CATGAATTGAAGGATGCAGATTAGACTTATTGCCAGGCTACGGAGTCACCTAGTGCAG,7720 fluorescence intensity (a.u.)
18,CAATTCAATCTGAGATTTGTACACCATGACATTTTCTTCACGGAGTCACCTAGTGCAG,3560 fluorescence intensity (a.u.)
19,ACAAATCAACAATTAGTAGAATTTTGCTTGTGAGGCTCATCGGAGTCACCTAGTGCAG,9370 fluorescence intensity (a.u.)
20,GATGAATTAATATGTGATATATCATTCCACAAGTATGCAACGGAGTCACCTAGTGCAG,7050 fluorescence intensity (a.u.)
21,ACCAAATTATCTCCCTGAATCTAATACACCTTCTTCCTCCCGGAGTCACCTAGTGCAG,15900 fluorescence intensity (a.u.)
